US8975247B2, “Methods and compositions of treating a flaviviridae family viral infection” (priority 2009, dated 2015)
Like-named read-outs stand apart in the source and are kept apart here.

Experiments:
[1] = tested on: HCV genotype 2a infectious clone; assay: HCV genotype 2a infectious clone assay (Renilla luciferase); type: cell-based; conditions: Hepatitis C virus, read-out: 2a % activity @ 5 μM, % replication activity of control remaining at 5 μM test compound
Huh7.5 cells = type: cell-based

SMILES | activity at 5 µM [1] [%] | 2a Cell Viability @ 5 μM (Huh7.5 cells; human, 3 days, 5 μM) | 2a Cell Viability @ 10 μM (Huh7.5 cells; human, 3 days, 10 μM) | 2a Cell Viability @ 5 μM (Huh7.5 cells; % cell survival at 5 μM) | 2a Cell Viability @ 10 μM (Huh7.5 cells; % cell survival at 10 μM)
Cc1ccc2c(c1)nc(CN1CCCC1)n2Cc1ccc(Cl)cc1 [EBP183] | 81 | > 100% | 99% |  | 
COc1cc(CCc2nc3cc(C)c(C)cc3n2Cc2ccc(Cl)cc2)cc(OC)c1OC [EBP370] | 62 | 93% | 78% |  | 
Cc1cc2nc(COCC3CC3)n(Cc3ccc(Cl)cc3)c2cc1C [EBP323] | 79 | > 100% | 99% |  | 
Cc1ccccc1Cn1cnc2c(NS(C)(=O)=O)c(C)c(C)cc21 [EBP166] | 86 | 97% | 91% |  | 
COc1ccc(Cn2cnc3c(N)c(C)c(C)cc32)cc1 [EBP346] | 68 | 103% | 99% |  | 
CC(C)c1nc2ccccc2n1Cc1ccc(Cl)cc1 [EBP017] | 62 | 81% | 88% |  | 
Cc1cc2c(ncn2Cc2ccc(Cl)cc2)c(NS(=O)(=O)C2CCCCC2)c1C [EBP431] | 79 | 100% | 92% |  | 
[O-][N+]1(Cc2nc3ccccc3n2Cc2ccc(Cl)cc2)CCCC1 [EBP405] | > 10 | 100% | 96% |  | 
CCOC(=O)Cc1nc2cc(S(C)(=O)=O)ccc2n1Cc1ccccc1 [EBP109] | 76 | 100, 100% | 100, 100% |  | 
Cc1cc2c(ncn2Cc2ccc(Cl)cc2)c(NC2CCCCC2)c1C [EBP435] | 86 | 100% | 93% |  | 
CCN(CC)c1c(C)c(C)cc2c1ncn2Cc1ccc(Cl)cc1 [EBP246] | 77 | > 100% | 98% |  | 
CCCCNC(=O)Nc1c(C)c(C)cc2c1ncn2Cc1ccc(Cl)cc1 [EBP245] | 87 | 96% | 93% |  | 
COc1cc2ncn(Cc3ccc(Cl)cc3)c2cc1OC [EBP210] | 65 | > 100% | 90% |  | 
COC(=O)c1cccc(Cn2c(CN3CCCC3)nc3ccccc32)c1 [EBP154] | 89 | >100, >100% | >100, >100% |  | 
O[C@@H]1CN(Cc2nc3ccccc3n2Cc2ccc(Cl)cc2)C[C@@H]1O [EBP412] | 81 | 100, 100% | 100, 100% |  | 
Cc1cc2c(ncn2Cc2ccc(Cl)cc2)c(NCC2CCCCC2)c1C [EBP432] | 90 | 93% | 94% |  | 
COc1ccc(Cn2cnc3c([N+](=O)[O-])c(C)c(C)cc32)cc1 [EBP303] | 74 | 95% | 74% |  | 
Oc1ccc(Cn2cnc3ccccc32)cc1 [EBP067] | 88 | 85% | 88% |  | 
Clc1ccc(Cn2c(CN3CCCC3)nc3cc(Cl)c(Cl)cc32)cc1 [EBP127] | 80 | >100, >100% | >100, >100% |  | 
Clc1ccc(Cn2c(Cc3ccccc3)nc3ccccc32)cc1 [EBP020] | 80 | > 100% | 68% |  | 
Cc1cccc(Cn2c(C)nc3c(NS(C)(=O)=O)c(C)c(C)cc32)c1 [EBP169] | 86 | > 100% | 97% |  | 
Fc1cc2ncn(Cc3ccc(Cl)cc3)c2cc1F [EBP269] | 76 | 97% | 85% |  | 
COCC1CCN(Cc2nc3ccccc3n2Cc2ccc(Cl)cc2)C1 (stereo not drawn) [EBP138] | 84 | 98, 98% | 98, 98% |  | 

SMILES | activity at 5 µM [1] [%] | 2a Cell Viability @ 5 μM (Huh7.5 cells; human, 3 days, 5 μM) | 2a Cell Viability @ 10 μM (Huh7.5 cells; human, 3 days, 10 μM) | 2a Cell Viability @ 5 μM (Huh7.5 cells; % cell survival at 5 μM) | 2a Cell Viability @ 10 μM (Huh7.5 cells; % cell survival at 10 μM)
Cc1cc2nc(/C=C/c3cccs3)n(Cc3ccc(Cl)cc3)c2cc1C [EBP475] | 38 | 100% | 95% |  | 
COCC1CCCN1Cc1nc2cc(C)ccc2n1Cc1ccc(Cl)cc1 (stereo not drawn) [EBP184] | 82 | > 100% | 90% |  | 
O=C(O)c1ccc2c(c1)ncn2Cc1ccc(Cl)cc1 [EBP226] | 78 | >100, >100% | >100, >100% |  | 
Cc1cc2nc(CN3CCC[C@@H]3C)n(Cc3ccc(Cl)cc3)c2cc1C [EBP272] | 56 | 98% | 69% |  | 
c1ccc2c(c1)nc(CN1CCCC1)n2CC1CCCCC1 [EBP160] | 86 |  |  | >100, >100% | >100, >100%
COc1ccc2nc(CN3CCCCC3CO)n(Cc3ccc(Cl)cc3)c2c1 (stereo not drawn) [EBP488] | 74 | 89% | 84% |  | 
Cc1cc2nc(-c3ccc[nH]c3=O)n(Cc3ccc(Cl)cc3)c2cc1C [EBP128] | 76 | 92% | 94% |  | 
COc1ccc2nc(CN3CCC[C@@H]3C)n(Cc3ccc(Cl)cc3)c2c1 [EBP486] | 76 | 100, 100% | 100, 100% |  | 
Cc1cc2ncn(Cc3ccc(Cl)c(Cl)c3)c2cc1C [EBP048] | 67 | 100% | 89% |  | 
O[C@@H]1CN(Cc2nc3ccccc3n2Cc2ccc(Cl)cc2)C[C@H]1O [EBP491] | 90 | 94% | 100% |  | 
COCC1CCCN1Cc1nc2ccccc2n1Cc1ccc(Cl)cc1 (stereo not drawn) [EBP142] | 77 | >100, >100% | >100, >100% |  | 
Cc1ccc2nc(CN3CCC[C@H]3C)n(Cc3ccc(Cl)cc3)c2c1 [EBP427] | 86 | 100% | 91% |  | 
Cc1cc2c(ncn2Cc2ccc(Cl)cc2)c(N)c1C [EBP238] | 69 | 100, 100% | 100, 100% |  | 
Cc1cc2nc(CC3CCCC3)n(Cc3ccc(Cl)cc3)c2cc1C [EBP271] | 61 |  |  | 100% | 90%
Cc1cc2nc(/C=C3\CCCNC3)n(Cc3ccc(Cl)cc3)c2cc1C [EBP423] | 59 | 98% | 71% |  | 
Clc1ccccc1Cn1c(CN2CCCC2)nc2ccccc21 [EBP157] | 90 | >100, >100% | >100, >100% |  | 
Cc1cc2nc(CN3CCCC3)n(CC3CCN(S(C)(=O)=O)CC3)c2cc1C [EBP195] | 71 | >100, >100% | >100, >100% |  | 
O=C1CCCN1Cc1nc2ccccc2n1Cc1ccc(Cl)cc1 [EBP144] | 77 | >100, >100% | >100, >100% |  | 
Cc1ccc2c(c1)nc(CN1CCC[C@H]1C)n2Cc1ccc(Cl)cc1 [EBP316] | 90 | 97% | 93% |  | 
COc1ccc(Cn2cnc3c(NS(C)(=O)=O)c(C)c(C)cc32)cc1 [EBP304] | 53 | > 100% | 93% |  | 
Clc1cccc(Cn2c(CN3CCCC3)nc3ccccc32)c1 [EBP156] | 57 | 89% | 93% |  | 
Cc1cc2c(ncn2Cc2ccc(Cl)cc2)c(NCc2ccccn2)c1C [EBP299] | 57 | 85% | 81% |  | 
Cc1cc2ncn(Cc3ccc(Cl)cc3)c2cc1Cl [EBP218] | 65 | > 100% | 88% |  | 
